# Data: the supplement of paper PMC8728848
# The other results are listed elsewhere or left out.
# B1: AT1G15820(2) (Arabidopsis thaliana), Q9LMQ2 (protein)
# chain: MAMAVSGAVLSGLGSSFLTGGKRGATALASGVGTGAQRVGRKTLIVAAAAAQPKKSWIPAVKGGGNFLDPEWLDGSLPGDFGFDPLGLGKDPAFLKWYREAELIHGRWAMAAVLGIFVGQAWSGVAWFEAGAQPDAIAPFSFGSLLGTQLLLMGWVESKRWVDFFNPDSQSVEWATPWSKTAENFANYTGDQGYPGGRFFDPLGLAGKNRDGVYEPDFEKLERLKLAEIKHSRLAMVAMLIFYFEAGQGKTPLGALGL
# Columns and labels:
# Test in all cases: glycan array binding signal (z-score within array); higher = stronger binding
# Conditions in all cases: glycan notation: IUPAC condensed, linker removed
# [1] = molecular target: Neu5Ac(a2-3)Gal(b1-4)GlcNAc(b1-3)[Neu5Ac(a2-3)Gal(b1-4)GlcNAc(b1-6)]GalNAc
# How it was run: (§1)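 Glycan array data came from 3228 arrays in the Consortium for Functional Glycomics database, and only arrays with an available protein sequence were kept. Glycan names were put into IUPAC-condensed notation, and columns mapping to the same glycan were averaged. The binding signal is a within-array Z-score, averaged across arrays of one protein sequence run at different concentrations or buffers and across linkers. A negative Z-score can be read as non-binding.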
# [2] = molecular target: Neu5Ac(a2-3)Gal(b1-4)GlcNAc(b1-6)GalNAc
# How it was run: as §1
# [3] = molecular target: Neu5Ac(a2-3)Gal(b1-4)GlcNAc(b1-6)[Gal(b1-3)]GalNAc
# How it was run: as §1
# [4] = molecular target: Neu5Ac(a2-3)Gal(b1-4)GlcNAc(b1-6)[Neu5Ac(a2-3)Gal(b1-3)]GalNAc
# How it was run: as §1
# [5] = molecular target: Neu5Ac(a2-3)Gal(b1-4)GlcNAc6S
# How it was run: as §1
# [6] = molecular target: Neu5Ac(a2-3)Gal(b1-4)[Fuc(a1-3)]GlcNAc
# How it was run: as §1
# [7] = molecular target: Neu5Ac(a2-3)Gal(b1-4)[Fuc(a1-3)]GlcNAc(b1-2)Man
# How it was run: as §1
# [8] = molecular target: Neu5Ac(a2-3)Gal(b1-4)[Fuc(a1-3)]GlcNAc(b1-3)Gal
# How it was run: as §1
# [9] = molecular target: Neu5Ac(a2-3)Gal(b1-4)[Fuc(a1-3)]GlcNAc(b1-3)Gal(b1-4)GlcNAc
# How it was run: as §1
# [10] = molecular target: Neu5Ac(a2-3)Gal(b1-4)[Fuc(a1-3)]GlcNAc(b1-3)Gal(b1-4)[Fuc(a1-3)]GlcNAc(b1-3)Gal(b1-4)[Fuc(a1-3)]GlcNAc
# How it was run: as §1
# [11] = molecular target: Neu5Ac(a2-3)Gal(b1-4)[Fuc(a1-3)]GlcNAc(b1-3)GalNAc
# How it was run: as §1
# [12] = molecular target: Neu5Ac(a2-3)Gal(b1-4)[Fuc(a1-3)]GlcNAc(b1-6)[Gal(b1-3)]GalNAc
# How it was run: as §1
# [13] = molecular target: Neu5Ac(a2-3)Gal(b1-4)[Fuc(a1-3)]GlcNAc(b1-6)[Neu5Ac(a2-3)Gal(b1-3)]GalNAc
# How it was run: as §1
# [14] = molecular target: Neu5Ac(a2-3)Gal(b1-4)[Fuc(a1-3)]GlcNAc6S
# How it was run: as §1
# [15] = molecular target: Neu5Ac(a2-3)Gal6S(b1-4)GlcNAc
# How it was run: as §1
# [16] = molecular target: Neu5Ac(a2-3)Gal6S(b1-4)[Fuc(a1-3)]GlcNAc
# How it was run: as §1
# Neu5Ac(a2-3)GalNAc = molecular target: Neu5Ac(a2-3)GalNAc
# How it was run: as §1
# [17] = molecular target: Neu5Ac(a2-3)GalNAc(b1-4)GlcNAc
# How it was run: as §1
# [18] = molecular target: Neu5Ac(a2-3)[GalNAc(b1-4)]Gal(b1-4)Glc
# How it was run: as §1
# [19] = molecular target: Neu5Ac(a2-3)[GalNAc(b1-4)]Gal(b1-4)GlcNAc
# How it was run: as §1
# [20] = molecular target: Neu5Ac(a2-3)[GalNAc(b1-4)]Gal(b1-4)GlcNAc(b1-3)GalNAc
# How it was run: as §1
# [21] = molecular target: Neu5Ac(a2-3)[Neu5Ac(a2-6)]GalNAc
# How it was run: as §1
# Neu5Ac(a2-6)Gal = molecular target: Neu5Ac(a2-6)Gal
# How it was run: as §1
# [22] = molecular target: Neu5Ac(a2-6)Gal(b1-3)GlcNAc(b1-3)[Gal(b1-4)GlcNAc(b1-6)]Gal(b1-4)Glc
# How it was run: as §1
# Neu5Ac(a2-6)Gal(b1-4)Glc = molecular target: Neu5Ac(a2-6)Gal(b1-4)Glc
# How it was run: as §1
# [23] = molecular target: Neu5Ac(a2-6)Gal(b1-4)GlcNAc
# How it was run: as §1
# [24] = molecular target: Neu5Ac(a2-6)Gal(b1-4)GlcNAc(b1-2)Man
# How it was run: as §1
# [25] = molecular target: Neu5Ac(a2-6)Gal(b1-4)GlcNAc(b1-2)Man(a1-3)Man(b1-4)GlcNAc(b1-4)GlcNAc
# How it was run: as §1
# [26] = molecular target: Neu5Ac(a2-6)Gal(b1-4)GlcNAc(b1-2)Man(a1-3)[Gal(b1-4)GlcNAc(b1-2)Man(a1-6)]Man(b1-4)GlcNAc(b1-4)GlcNAc
# How it was run: as §1
# [27] = molecular target: Neu5Ac(a2-6)Gal(b1-4)GlcNAc(b1-2)Man(a1-3)[GlcNAc(b1-2)Man(a1-6)]Man(b1-4)GlcNAc(b1-4)GlcNAc
# How it was run: as §1
# [28] = molecular target: Neu5Ac(a2-6)Gal(b1-4)GlcNAc(b1-2)Man(a1-3)[GlcNAc(b1-4)][Neu5Ac(a2-6)Gal(b1-4)GlcNAc(b1-2)Man(a1-6)]Man(b1-4)GlcNAc(b1-4)GlcNAc
# How it was run: as §1
# [29] = molecular target: Neu5Ac(a2-6)Gal(b1-4)GlcNAc(b1-2)Man(a1-3)[Man(a1-6)]Man(b1-4)GlcNAc(b1-4)GlcNAc
# How it was run: as §1
# [30] = molecular target: Neu5Ac(a2-6)Gal(b1-4)GlcNAc(b1-2)Man(a1-3)[Neu5Ac(a2-3)Gal(b1-4)GlcNAc(b1-2)Man(a1-6)]Man(b1-4)GlcNAc(b1-4)GlcNAc
# How it was run: as §1
# [31] = molecular target: Neu5Ac(a2-6)Gal(b1-4)GlcNAc(b1-2)Man(a1-3)[Neu5Ac(a2-6)Gal(b1-4)GlcNAc(b1-2)Man(a1-6)]Man(b1-4)GlcNAc(b1-4)GlcNAc
# How it was run: as §1
# [32] = molecular target: Neu5Ac(a2-6)Gal(b1-4)GlcNAc(b1-2)Man(a1-3)[Neu5Ac(a2-6)Gal(b1-4)GlcNAc(b1-2)Man(a1-6)]Man(b1-4)GlcNAc(b1-4)[Fuc(a1-6)]GlcNAc
# How it was run: as §1
# [33] = molecular target: Neu5Ac(a2-6)Gal(b1-4)GlcNAc(b1-2)Man(a1-6)Man(b1-4)GlcNAc(b1-4)GlcNAc
# How it was run: as §1
# [34] = molecular target: Neu5Ac(a2-6)Gal(b1-4)GlcNAc(b1-2)Man(a1-6)[Gal(b1-4)GlcNAc(b1-2)Man(a1-3)]Man(b1-4)GlcNAc(b1-4)GlcNAc
# How it was run: as §1
# [35] = molecular target: Neu5Ac(a2-6)Gal(b1-4)GlcNAc(b1-2)Man(a1-6)[GlcNAc(b1-2)Man(a1-3)]Man(b1-4)GlcNAc(b1-4)GlcNAc
# How it was run: as §1
# [36] = molecular target: Neu5Ac(a2-6)Gal(b1-4)GlcNAc(b1-2)Man(a1-6)[Man(a1-3)]Man(b1-4)GlcNAc(b1-4)GlcNAc
# How it was run: as §1
# [37] = molecular target: Neu5Ac(a2-6)Gal(b1-4)GlcNAc(b1-2)[Neu5Ac(a2-6)Gal(b1-4)GlcNAc(b1-4)]Man(a1-3)[GlcNAc(b1-4)][Neu5Ac(a2-6)Gal(b1-4)GlcNAc(b1-2)[Neu5Ac(a2-6)Gal(b1-4)GlcNAc(b1-6)]Man(a1-6)]Man(b1-4)GlcNAc(b1-4)GlcNAc
# How it was run: as §1
# [38] = molecular target: Neu5Ac(a2-6)Gal(b1-4)GlcNAc(b1-2)[Neu5Ac(a2-6)Gal(b1-4)GlcNAc(b1-4)]Man(a1-3)[GlcNAc(b1-4)][Neu5Ac(a2-6)Gal(b1-4)GlcNAc(b1-4)Man(a1-6)]Man(b1-4)GlcNAc(b1-4)GlcNAc
# How it was run: as §1
# [39] = molecular target: Neu5Ac(a2-6)Gal(b1-4)GlcNAc(b1-2)[Neu5Ac(a2-6)Gal(b1-4)GlcNAc(b1-6)]Man(a1-6)[Neu5Ac(a2-6)Gal(b1-4)GlcNAc(b1-2)Man(a1-3)][GlcNAc(b1-4)]Man(b1-4)GlcNAc(b1-4)GlcNAc
# How it was run: as §1
# [40] = molecular target: Neu5Ac(a2-6)Gal(b1-4)GlcNAc(b1-3)Gal(b1-3)GlcNAc
# How it was run: as §1
# [41] = molecular target: Neu5Ac(a2-6)Gal(b1-4)GlcNAc(b1-3)Gal(b1-4)GlcNAc
# How it was run: as §1
# [42] = molecular target: Neu5Ac(a2-6)Gal(b1-4)GlcNAc(b1-3)Gal(b1-4)GlcNAc(b1-2)Man(a1-3)[Neu5Ac(a2-6)Gal(b1-4)GlcNAc(b1-3)Gal(b1-4)GlcNAc(b1-2)Man(a1-6)]GalNAc
# How it was run: as §1
# [43] = molecular target: Neu5Ac(a2-6)Gal(b1-4)GlcNAc(b1-3)Gal(b1-4)GlcNAc(b1-3)Gal(b1-4)GlcNAc
# How it was run: as §1
binder,measurement,setting,value
B1,glycan array binding signal (z-score),[1],0.172
same,glycan array binding signal (z-score),[2],-0.315
same,glycan array binding signal (z-score),[3],-0.407
same,glycan array binding signal (z-score),[4],-0.772
same,glycan array binding signal (z-score),[5],-0.028
same,glycan array binding signal (z-score),[6],-0.567
same,glycan array binding signal (z-score),[7],0.531
same,glycan array binding signal (z-score),[8],0.274
same,glycan array binding signal (z-score),[9],0.227
same,glycan array binding signal (z-score),[10],-0.228
same,glycan array binding signal (z-score),[11],1.02
same,glycan array binding signal (z-score),[12],-0.204
same,glycan array binding signal (z-score),[13],0.273
same,glycan array binding signal (z-score),[14],0.04
same,glycan array binding signal (z-score),[15],0.438
same,glycan array binding signal (z-score),[16],0.046
same,glycan array binding signal (z-score),Neu5Ac(a2-3)GalNAc,-0.502
same,glycan array binding signal (z-score),[17],-0.255
same,glycan array binding signal (z-score),[18],-0.033
same,glycan array binding signal (z-score),[19],-0.469
same,glycan array binding signal (z-score),[20],-0.111
same,glycan array binding signal (z-score),[21],-0.525
same,glycan array binding signal (z-score),Neu5Ac(a2-6)Gal,0.144
same,glycan array binding signal (z-score),[22],-0.209
same,glycan array binding signal (z-score),Neu5Ac(a2-6)Gal(b1-4)Glc,0.018
same,glycan array binding signal (z-score),[23],-0.432
same,glycan array binding signal (z-score),[24],-0.257
same,glycan array binding signal (z-score),[25],-0.048
same,glycan array binding signal (z-score),[26],0.245
same,glycan array binding signal (z-score),[27],-0.006
same,glycan array binding signal (z-score),[28],0.173
same,glycan array binding signal (z-score),[29],-0.251
same,glycan array binding signal (z-score),[30],0.033
same,glycan array binding signal (z-score),[31],0.19
same,glycan array binding signal (z-score),[32],0.27
same,glycan array binding signal (z-score),[33],0.122
same,glycan array binding signal (z-score),[34],-0.468
same,glycan array binding signal (z-score),[35],-0.457
same,glycan array binding signal (z-score),[36],-0.545
same,glycan array binding signal (z-score),[37],-0.676
same,glycan array binding signal (z-score),[38],-0.209
same,glycan array binding signal (z-score),[39],-0.477
same,glycan array binding signal (z-score),[40],0.051
same,glycan array binding signal (z-score),[41],-0.197
same,glycan array binding signal (z-score),[42],-0.348
same,glycan array binding signal (z-score),[43],0.049
